Source: paper PMC8750214, “N-Glycosylation Facilitates 4-1BB Membrane Localization by Avoiding Its Multimerization” (Cells, 2022)

Target: T1, human Fc-tagged 4-1BBL (UniProt P41273 in part)
T1 construct: 4-1BB ligand (4-1BBL/CD137L/TNFSF9), recombinant Fc-tagged protein from Sino Biological; 'human' in the methods describes the Fc tag; The ligand is probably the human extracellular part; No catalogue number is printed; also called 4-1BB ligand; CD137L; source: bought: Sino Biological, expressed in HEK293 cells
Test: BLI; Octet RED384; His-tagged 4-1BB (native or deglycosylated) loaded on NTA biosensor at 200 nM; single concentration of 4-1BBL (50 mM [sic]) in kinetic buffer; KD calculated on a 1:1 binding ratio
Conditions: both partners purified

Row | Kd [nM] | Binder
1 | 11 | His-tagged 4-1BB protein, deglycosylated with PNGase F (receptor, N-glycans removed by PNGase F (sites N138 and N149), human 4-1BB (CD137/TNFRSF9), recombinant His-tagged protein from Sino Biological, deglycosylated; Same bought protein as m1 after PNGase F. PNGase F turns the glycosylated asparagines into aspartates; also called deglycosylated 4-1BB; N-glycan-abolished 4-1BB protein; source: bought: Sino Biological, expressed in HEK293 cells; treated with PNGase F under non-reducing conditions) not shown
2 | 10 | His-tagged 4-1BB protein, native (N-glycosylated, PNGase F-untreated) (receptor, N-glycans on N138 and N149 (intact N-glycosylation), human 4-1BB (CD137/TNFRSF9), recombinant His-tagged protein from Sino Biological; No catalogue number or limits are printed; also called CD137; TNFRSF9; source: bought: Sino Biological, expressed in HEK293 cells) not shown
